Measurements as given in the RNAGym collection of RNA variant scans (doi:10.7554/elife.90254).
The source gives no read counts; variants with many changes may rest on few reads.

B1: LINE1-mini (parent)
chain: GGCAGAGCUCAACACAGCGUGGCAAAGUGGCUGUGGCUAGACUGCC

Variants of: B1
Assay: self-cleavage, relative activity (ratio to wild type); higher = more cleavage; in vitro, sequencing; the parent is a self-cleaving ribozyme

| Variant | self-cleavage |
| --- | --- |
| C10U U28A U32G | 0.29 |
| C10U U28C G40C C46U | 0.02 |
| C10U U32G G36U | 0.08 |
| C10U U32G G44C C45G | 0 |
| C10U U34A C37A | 0.01 |
| C10U U34C G35U | 0.03 |
| C10U U34C U43A | 0.02 |
| A11C A12C G30U | 0.01 |
| A11C A12G G17U G19A U32C G35U G40U | 0.01 |
| A11C A12G U20A | 0.03 |
| A11C A12U A14U G44C | 0.03 |
| A11C A12U G17C G30C C37G A41U | 0 |
| A11C A12U G33A G40A | 0.01 |
| A11C A12U G40U | 0.08 |
| A11C A14C A16G C18U U20A A24C | 0 |
| A11C A14C A24G | 0.05 |
| A11C A14C C18U | 0.05 |
| A11C A14U C18A U32G | 0.01 |
| A11C A14U C18U A24U C46U | 0.03 |
| A11C A14U G21U G22A G27A | 0.02 |
| A11C A14U G22U G40U | 0.01 |
| A11C A14U G27A | 0.01 |
| A11C A16C C46U | 0.01 |
| A11C A16G G17C C31A U34C C42A | 0 |

| Variant | self-cleavage |
| --- | --- |
| A11C A16U G27C U28C G35A | 0.11 |
| A11C A16U U32G | 0.01 |
| A11C A24C G27U G30U C37U | 0.01 |
| A11C A24U G27U G35U A39G G44A | 0 |
| A11C A25C A39U G40C A41C | 0.01 |
| A11C A25C G40C | 0.02 |
| A11C A26C C37A | 0.03 |
| A11C A26G G35A | 0.01 |
| A11C C13A A14G U20C U34G C42G | 0.01 |
| A11C C13A A41U | 0 |
| A11C C13A C23G G44U C45G | 0.01 |
| A11C C13A G19U A24U | 0.01 |
| A11C C13A G30C | 0.02 |
| A11C C13G A39C | 0.02 |
| A11C C13G C15U A24C G36A | 0.02 |
| A11C C15A G27U U34C G40U | 0 |
| A11C C15A G29A G36C | 0.01 |
| A11C C15G G29C C31U | 0.01 |
| A11C C15U C18U G19C G22U A26G G30U | 0.01 |
| A11C C15U C46G | 0.01 |
| A11C C15U G40A C46A | 0.01 |
| A11C C18A A39G | 0.16 |
| A11C C18A G44C | 0.01 |
| A11C C18A U38G | 0.01 |

| Variant | self-cleavage |
| --- | --- |
| A11C C18G A25G C46U | 0.02 |
| A11C C18G G21C C31G G40U | 0.01 |
| A11C C18G G35U | 0.06 |
| A11C C18G U32C | 0.02 |
| A11C C18U C23U C42U | 0 |
| A11C C18U C42G | 0.01 |
| A11C C23A G29U G44A | 0 |
| A11C C23A U28G G30U G36A | 0.05 |
| A11C C37G C45U | 0 |
| A11C C42G U43G C45G | 0 |
| A11C G17A A39C | 0.02 |
| A11C G17A G27A | 0.03 |
| A11C G17A G30U | 0.04 |
| A11C G17U A24G | 0.03 |
| A11C G17U G21U A24C | 0 |
| A11C G17U U20A G29C G36U A41G | 0 |
| A11C G19A A26G A39G | 0.01 |
| A11C G19A C31U A41U | 0.04 |
| A11C G19C A25U U34C | 0.01 |
| A11C G19U A25U | 0.02 |
| A11C G19U C37U | 0.02 |
| A11C G19U C46G | 0.14 |
| A11C G21C U34C G40A U43C | 0 |
| A11C G21U A41U | 0.02 |

| Variant | self-cleavage |
| --- | --- |
| A11C G21U G27U | 0.02 |
| A11C G21U G30C G36C C37G | 0.01 |
| A11C G22A G30C G35U C42G | 0.02 |
| A11C G22C U43C | 0.02 |
| A11C G22U C37G | 0.01 |
| A11C G22U G27U A39G | 0 |
| A11C G22U G29U | 0 |
| A11C G27A G30C G44A | 0.07 |
| A11C G27U U43A C46A | 0.01 |
| A11C G29C G33A C46A | 0 |
| A11C G29U U34A A41C | 0.02 |
| A11C G30A G40U C46G | 0.01 |
| A11C G30C G33A | 0.03 |
| A11C G30U A39G G44A | 0 |
| A11C G35U A39U | 0.02 |
| A11C G36C G44C | 0.01 |
| A11C U20A G21U U43A | 0 |
| A11C U20A G29U | 0.01 |
| A11C U20G G27C C42U | 0.04 |
| A11C U20G G30C C45U | 0.01 |
| A11C U28A C46U | 0.02 |
| A11C U28A G40C | 0.03 |
| A11C U32A G33U A41G C46A | 0.02 |
| A11C U32C A39G | 0.04 |

| Variant | self-cleavage |
| --- | --- |
| A11C U32C G33A | 0.04 |
| A11C U32G G33A C42A | 0.01 |
| A11C U34A G36C | 0 |
| A11C U34C U43C | 0.03 |
| A11C U38G C45A | 0.01 |
| A11G A12C A14C C23A G40C G44A | 0 |
| A11G A12U A16U U34G | 0 |
| A11G A12U C18G G33U | 0.01 |
| A11G A12U C37U | 0.01 |
| A11G A12U G17C G22C A25C G33C | 0 |
| A11G A12U U20A G33U A41U | 0 |
| A11G A14C A16U G33A G35U | 0 |
| A11G A14C A26U | 0.04 |
| A11G A14U G35C G40U C46U | 0 |
| A11G A16C A39C | 0.01 |
| A11G A16C G30A G35U G36A | 0.02 |
| A11G A16C G35U G44C | 0.01 |
| A11G A16G A25C U28G U32A | 0 |
| A11G A16G G33A | 0.01 |
| A11G A16U A25U | 0.03 |
| A11G A16U G21U | 0.03 |
| A11G A24C G27A | 0.01 |
| A11G A24G U28C U32C | 0.05 |
| A11G A24U G35U | 0.01 |

| Variant | self-cleavage |
| --- | --- |
| A11G A25G G35A | 0.02 |
| A11G A25G U38A C46U | 0.01 |
| A11G A25U C37U | 0.02 |
| A11G A25U U38G G40U | 0.01 |
| A11G A26C G30U G33U | 0.01 |
| A11G A26G G40C C45U | 0.02 |
| A11G A39G G44U | 0.02 |
| A11G A41G U43C | 0.01 |
| A11G C13A C18G C23U G29A A41C | 0.03 |
| A11G C13G A14U | 0.03 |
| A11G C15A A25C C46G | 0.01 |
| A11G C15A C37G | 0.01 |
| A11G C15G G30C G40A | 0.01 |
| A11G C15U G19A | 0.03 |
| A11G C15U G19U U20A G21U G30C | 0.01 |
| A11G C15U G33U A41U | 0 |
| A11G C15U G44A | 0.04 |
| A11G C15U U20G A25U G35A A39U | 0 |
| A11G C15U U34A | 0.03 |
| A11G C18A G19U C45U | 0 |
| A11G C18G A39C | 0.02 |
| A11G C18G C46U | 0.01 |
| A11G C18G U34A U38G | 0.01 |
| A11G C18U C46A | 0.09 |

| Variant | self-cleavage |
| --- | --- |
| A11G C23A A25G G29U | 0.02 |
| A11G C23G G33A | 0.01 |
| A11G C23U C46U | 0.04 |
| A11G C31A A41U | 0 |
| A11G C31A U34G | 0.02 |
| A11G C37A A39G G40A C42A | 0.02 |
| A11G G17A G27U C45A | 0.04 |
| A11G G17U A26U C31A | 0.02 |
| A11G G17U U20A A26U G29A | 0.02 |
| A11G G19A A24U | 0.02 |
| A11G G19A C23U | 0.05 |
| A11G G19A G30U | 0.01 |
| A11G G19C C23A | 0.02 |
| A11G G19C G21C G22C G33C | 0.01 |
| A11G G19C G27A A39C | 0 |
| A11G G19U C23A | 0.02 |
| A11G G19U G29C C45G | 0 |
| A11G G21A C23U C37G | 0.02 |
| A11G G21A G22A U34C | 0.02 |
| A11G G21C G33C | 0.02 |
| A11G G21U A24U | 0 |
| A11G G21U G30C | 0.04 |
| A11G G22A G29C | 0.01 |
